# Measurements from paper PMC6919601, “Identification of Plasmodium dipeptidyl aminopeptidase allosteric inhibitors by high throughput screening” (PLoS ONE, 2019).
# The whole screen tested about 110,000 compounds, of which about 230 (0.21%) showed an effect of 50% or more. The list shows a part of the results.
# Target: DPAP1 (Plasmodium falciparum, UniProt Q8IIJ9)
# Assay: primary screen, percent inhibition; read by cleavage of a fluorogenic dipeptide substrate; higher = more effect of the substance
# Parameters: species or system P. falciparum D10 trophozoite lysates; single well
# 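Note: 30 min substrate incubation versus DMSO and 10 µM JCP410 controls.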
# Chain of DPAP1 (Q8IIJ9 whole entry, looked up): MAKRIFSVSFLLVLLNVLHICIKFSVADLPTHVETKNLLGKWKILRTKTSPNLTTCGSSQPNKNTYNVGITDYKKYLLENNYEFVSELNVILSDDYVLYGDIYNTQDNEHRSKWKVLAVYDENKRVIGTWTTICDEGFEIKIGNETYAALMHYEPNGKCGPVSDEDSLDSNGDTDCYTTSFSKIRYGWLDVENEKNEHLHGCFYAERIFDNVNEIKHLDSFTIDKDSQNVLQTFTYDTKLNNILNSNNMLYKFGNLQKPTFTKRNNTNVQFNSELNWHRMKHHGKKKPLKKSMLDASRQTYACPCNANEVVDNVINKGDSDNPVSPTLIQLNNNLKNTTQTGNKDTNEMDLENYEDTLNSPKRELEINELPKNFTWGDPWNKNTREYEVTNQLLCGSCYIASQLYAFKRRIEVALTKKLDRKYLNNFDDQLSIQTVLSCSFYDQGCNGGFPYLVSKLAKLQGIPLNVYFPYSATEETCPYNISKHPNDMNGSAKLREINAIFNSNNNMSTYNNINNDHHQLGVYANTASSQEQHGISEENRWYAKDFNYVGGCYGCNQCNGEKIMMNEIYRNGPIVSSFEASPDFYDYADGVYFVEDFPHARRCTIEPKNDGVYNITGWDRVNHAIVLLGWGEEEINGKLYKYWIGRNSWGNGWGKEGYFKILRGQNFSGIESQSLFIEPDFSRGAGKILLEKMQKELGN
row,Structure (SMILES),% Inhibition @ 10 uM
1,CCn1c(C(=O)NCc2ccccc2F)cc2oc3ccccc3c21,-8.96%
2,COC(=O)C1=C(C)N(C)C(=O)NC1c1ccc(OC(F)(F)F)cc1 (stereo not drawn),0.503%
3,COc1ccc(-n2cc(-c3ccc(C)cc3)nc2SCC(=O)NCC2CCCO2)cc1 (stereo not drawn),4.33%
4,NC(=O)NC(c1ccc(Cl)cc1)c1ccc(Cl)cc1,-7.06%
5,Cn1c(-c2ccccc2)cn2c3ccccc3nc12,-1.96%
6,N#C/C(=C\c1cccc2ccccc12)c1nn(-c2ccccc2)c(N)c1C#N,6.5%
7,CS(=O)(=O)N(CCc1ccccc1)CC(=O)Nc1cc(C(F)(F)F)ccc1Cl,2.82%
8,COc1cc(C(=O)/N=c2\c(C)cccn2C(=O)c2cc(OC)c(OC)c(OC)c2)cc(OC)c1OC,3.94%
9,CCCC(=O)Nc1ccc(S(=O)(=O)Nc2nccs2)cc1,0.324%
10,COCCNC(=O)Cn1cnc2sc(C)cc2c1=O,-2.17%
11,CCCCSC1=C(C#N)C(c2ccc(O)c(OC)c2)C2=C(O)CCCC2=N1 (stereo not drawn),-7.02%
12,CCOc1ccc(C2CC(=O)N=C(NC(=O)c3cccnc3)N2)cc1 (stereo not drawn),0.6%
13,COC(C)(C)CCC[C@@H](C)C(=O)OC(C)C,-3.58%
14,COc1ccc(C2C(C(=O)NCC3CCCO3)c3cc(OC)c(OC)cc3C(=O)N2C)cc1OC (stereo not drawn),-2.9%
15,C=CCOc1ccc(/C=C2\Oc3ccc(C(=O)OC)cc3C2=O)cc1,-1.37%
16,O=C(NCc1ccc(F)cc1)c1ccc2c(O)c(S(=O)(=O)c3ccc(Cl)cc3)c(O)nc2c1,2.73%
17,CCN1CCN(CCCNC(=O)c2cc3c(s2)-c2ccccc2S(=O)(=O)C3)CC1,-3.96%
18,Cc1ccc(NC(=O)CCN2C(=O)CSC2=O)cc1,-3.25%
19,Cn1c(=O)c2c(nc(Cl)n2CC(O)CO)n(C)c1=O (stereo not drawn),3.47%
20,CCCN(Cc1cc([N+](=O)[O-])ccc1Cl)CC1CC1,-0.0494%
21,COc1ccc(-c2nc(CSCC(=O)NC(C)c3ccccc3)c(C)o2)cc1OC (stereo not drawn),-1.05%

row,Structure (SMILES),% Inhibition @ 10 uM
1,Cc1ccc(C(=O)Nc2ccc3nc(SCC(=O)N4CCOCC4)sc3c2)cc1,4%
2,O=C(N/C(=C\c1cccs1)C(=O)N1CCN(Cc2ccccc2)CC1)c1ccccc1,-1.08%
3,Brc1ccc(C2Oc3ccccc3C3CC(c4cccs4)=NN32)o1 (stereo not drawn),40.7%
4,COCCCNC(=O)c1cc2c(s1)CS(=O)(=O)C2,-3.84%
5,CCN(CC)C(=O)C1CCCN(C2Cc3ccccc3C2)C1 (stereo not drawn),4.65%
6,CN1CCN(C(=O)c2ccc(CS(=O)c3ccc(Cl)cc3)o2)CC1 (stereo not drawn),-3.09%
7,CC1=CC2(CCC(C)CC2C(=O)NCc2ccc(Cl)cc2)OC1=O (stereo not drawn),-0.406%
8,N=C1/C(=C\c2ccco2)C(=O)N=C2SC(N3CCCC3)=NN12,-5.27%
9,O=C(ON1C(=O)c2cccc3cccc(c23)C1=O)c1ccco1,-0.958%
10,CCOc1cccc(C(=O)Nc2ccccc2F)c1,6.15%
11,COc1cccc2c1cc1c(=O)n(CC(=O)NCCCOC(C)C)nc(C)n12,4.84%
12,CS(=O)(=O)CC[C@@H](C(=O)NC1CCCCCC1)N1Cc2ccccc2C1=O,4.54%
13,CCOC(=O)c1c(NC(C)=O)sc2c(O)c(CN3CCN(CC)CC3)ccc12,4.66%
14,Cc1cc(C)n(Cc2ccccc2F)c(=O)c1C#N,-5.8%
15,CC1C/C(=C/c2ccncc2)C(=O)/C(=C/c2ccncc2)C1 (stereo not drawn),2.59%
16,COc1ccc(CNC(=O)CS(=O)(=O)Cc2nc(-c3ccc(C)cc3)oc2C)cc1,-5.58%
17,Cc1ccc(-c2cc(C(F)(F)F)n3nc(C(=O)NCCCN4CCOCC4)cc3n2)cc1,-4.59%
18,Cc1cccn2c(=O)c3cc(C#N)c(=N)n(CCOCCO)c3nc12,-1.47%
19,COc1ccc(CN(C(=O)c2cccc(F)c2)C2CC(=O)N(c3ccccc3)C2=O)cc1 (stereo not drawn),3.05%
20,COCCNCc1c(C(=O)O)n(Cc2ccccc2)c2ccccc12,1.93%
21,Cn1nc(C(=O)NCCOC23CC4CC(CC(C4)C2)C3)c2c1-c1ccccc1SC2,10.7%

row,Structure (SMILES),% Inhibition @ 10 uM
1,OC(c1ccccc1)c1nc2ccccc2s1 (stereo not drawn),7.49%
2,O=C(Cn1cnc2c(nnn2Cc2ccccc2F)c1=O)NC1CCCCC1,2.85%
3,COc1ccc(Cn2cc[nH]c(=O)c2=O)cc1,1.02%
4,O=C(NCC1CCCO1)C1CCN(C(=O)c2cc3sccc3n2Cc2ccc(Cl)cc2)CC1 (stereo not drawn),0.137%
5,O=C(COCc1cc(-c2ccco2)on1)NCc1cccs1,-1.58%
6,CN(C)c1ccc(CN2CCN(CCO)CC2)cc1,5.56%
7,Cc1ccc(CNC(=O)c2cc3c(=O)n(Cc4ccccc4)ccc3nc2C)o1,0.411%
8,CCCCNC(=O)CN1C(=O)c2cccc3cccc1c23,-6.02%
9,COc1ccc(CNC(=O)c2oc3ccc4c(c3c2C)C(=O)CC(C)(C)O4)cc1,-8.96%
10,COc1ccc(Cl)cc1C(=O)N1C(C)CCCC1C (stereo not drawn),5.24%
11,Cc1ccc(C)c(NCc2ccccc2CO)c1,-7.96%
12,CCN(CC)CCNC(=O)Cn1nc(C)n2c(cc3sccc32)c1=O,-0.0745%
13,CCN(C(C)=O)c1nc(-c2ccc(C3CCCCC3)cc2)cs1,0.913%
14,Cc1ccc(CNC(=O)CS(=O)Cc2nc(-c3ccccc3Cl)oc2C)cc1 (stereo not drawn),-1.05%
15,O=C(c1nc(-c2ccc(Cl)cc2)n2c1CCCCC2)N1CCN(c2ccccn2)CC1,4.61%
16,Cc1cc(Br)ccc1OCC(=O)N1CCN(Cc2ccccc2)CC1,-8.75%
17,O=C(COCc1cc(-c2cccs2)on1)Nc1cccnc1,-0.234%
18,OCC#CCSc1nc2ccccc2n1Cc1ccccc1,1.74%
19,CCCOc1ccc(Cc2nn3c(=O)/c(=C\c4ccc(C(=O)OC)cc4)sc3nc2=O)cc1,-2.29%
20,Cc1ccc(S(=O)(=O)N2CCC(C)CC2)cc1[N+](=O)[O-],5.03%
21,O=C(O)c1ccccc1C(=O)Nc1cccc(Br)c1,3.93%
